In the supplement of paper PMC8728848:
Some of the results follow.

How the values were obtained:
Assay in all cases: glycan array binding signal (z-score within array); higher = stronger binding
Conditions in all cases: glycan notation: IUPAC condensed, linker removed
[1] = biological target: Gal(b1-4)GlcNAc(b1-2)[Gal(b1-4)GlcNAc(b1-6)]Man(a1-6)[GlcNAc(b1-4)][Gal(b1-4)GlcNAc(b1-2)Man(a1-3)]Man(b1-4)GlcNAc(b1-4)GlcNAc
Procedure, shortened: (§1)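 Glycan array data came from 3228 arrays in the Consortium for Functional Glycomics database, and only arrays with an available protein sequence were kept. Glycan names were put into IUPAC-condensed notation, and columns mapping to the same glycan were averaged. The binding signal is a within-array Z-score, averaged across arrays of one protein sequence run at different concentrations or buffers and across linkers. A negative Z-score can be read as non-binding.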

[2] = biological target: Gal(b1-4)GlcNAc(b1-2)[Gal(b1-4)GlcNAc(b1-6)]Man(a1-6)[GlcNAc(b1-4)][Gal(b1-4)GlcNAc(b1-2)[Gal(b1-4)GlcNAc(b1-4)]Man(a1-3)]Man(b1-4)GlcNAc(b1-4)[Fuc(a1-6)]GlcNAc
Procedure, shortened: as §1

[3] = biological target: Gal(b1-4)GlcNAc(b1-3)Gal(b1-3)GalNAc
Procedure, shortened: as §1

[4] = biological target: Gal(b1-4)GlcNAc(b1-3)Gal(b1-3)GlcNAc
Procedure, shortened: as §1

[5] = biological target: Gal(b1-4)GlcNAc(b1-3)Gal(b1-4)Glc
Procedure, shortened: as §1

[6] = biological target: Gal(b1-4)GlcNAc(b1-3)Gal(b1-4)GlcNAc
Procedure, shortened: as §1

[7] = biological target: Gal(b1-4)GlcNAc(b1-3)Gal(b1-4)GlcNAc(b1-2)Man(a1-3)[Gal(b1-4)GlcNAc(b1-3)Gal(b1-4)GlcNAc(b1-2)Man(a1-6)]Man(b1-4)GlcNAc(b1-4)GlcNAc
Procedure, shortened: as §1

[8] = biological target: Gal(b1-4)GlcNAc(b1-3)Gal(b1-4)GlcNAc(b1-2)Man(a1-3)[Gal(b1-4)GlcNAc(b1-3)Gal(b1-4)GlcNAc(b1-2)Man(a1-6)]Man(b1-4)GlcNAc(b1-4)[Fuc(a1-6)]GlcNAc
Procedure, shortened: as §1

[9] = biological target: Gal(b1-4)GlcNAc(b1-3)Gal(b1-4)GlcNAc(b1-2)[Gal(b1-4)GlcNAc(b1-3)Gal(b1-4)GlcNAc(b1-6)]Man(a1-6)[Gal(b1-4)GlcNAc(b1-3)Gal(b1-4)GlcNAc(b1-2)Man(a1-3)]Man(b1-4)GlcNAc(b1-4)GlcNAc
Procedure, shortened: as §1

[10] = biological target: Gal(b1-4)GlcNAc(b1-3)Gal(b1-4)GlcNAc(b1-2)[Gal(b1-4)GlcNAc(b1-3)Gal(b1-4)GlcNAc(b1-6)]Man(a1-6)[Gal(b1-4)GlcNAc(b1-3)Gal(b1-4)GlcNAc(b1-2)Man(a1-3)]Man(b1-4)GlcNAc(b1-4)[Fuc(a1-6)]GlcNAc
Procedure, shortened: as §1

[11] = biological target: Gal(b1-4)GlcNAc(b1-3)Gal(b1-4)GlcNAc(b1-3)Gal(b1-4)GlcNAc
Procedure, shortened: as §1

[12] = biological target: Gal(b1-4)GlcNAc(b1-3)Gal(b1-4)GlcNAc(b1-3)Gal(b1-4)GlcNAc(b1-2)Man(a1-3)[Gal(b1-4)GlcNAc(b1-3)Gal(b1-4)GlcNAc(b1-3)Gal(b1-4)GlcNAc(b1-2)Man(a1-6)]Man(b1-4)GlcNAc(b1-4)GlcNAc
Procedure, shortened: as §1

[13] = biological target: Gal(b1-4)GlcNAc(b1-3)Gal(b1-4)GlcNAc(b1-3)Gal(b1-4)GlcNAc(b1-2)Man(a1-3)[Gal(b1-4)GlcNAc(b1-3)Gal(b1-4)GlcNAc(b1-3)Gal(b1-4)GlcNAc(b1-2)Man(a1-6)]Man(b1-4)GlcNAc(b1-4)[Fuc(a1-6)]GlcNAc
Procedure, shortened: as §1

[14] = biological target: Gal(b1-4)GlcNAc(b1-3)Gal(b1-4)GlcNAc(b1-3)Gal(b1-4)GlcNAc(b1-2)[Gal(b1-4)GlcNAc(b1-3)Gal(b1-4)GlcNAc(b1-3)Gal(b1-4)GlcNAc(b1-6)]Man(a1-6)[Gal(b1-4)GlcNAc(b1-3)Gal(b1-4)GlcNAc(b1-3)Gal(b1-4)GlcNAc(b1-2)Man(a1-3)]Man(b1-4)GlcNAc(b1-4)[Fuc(a1-6)]GlcNAc
Procedure, shortened: as §1

[15] = biological target: Gal(b1-4)GlcNAc(b1-3)Gal(b1-4)GlcNAc(b1-3)Gal(b1-4)GlcNAc(b1-3)Gal(b1-4)GlcNAc(b1-2)Man(a1-3)[Gal(b1-4)GlcNAc(b1-3)Gal(b1-4)GlcNAc(b1-3)Gal(b1-4)GlcNAc(b1-3)Gal(b1-4)GlcNAc(b1-2)Man(a1-6)]Man(b1-4)GlcNAc(b1-4)GlcNAc
Procedure, shortened: as §1

[16] = biological target: Gal(b1-4)GlcNAc(b1-3)Gal(b1-4)GlcNAc(b1-3)Gal(b1-4)GlcNAc(b1-3)Gal(b1-4)GlcNAc(b1-2)Man(a1-3)[Gal(b1-4)GlcNAc(b1-3)Gal(b1-4)GlcNAc(b1-3)Gal(b1-4)GlcNAc(b1-3)Gal(b1-4)GlcNAc(b1-2)Man(a1-6)]Man(b1-4)GlcNAc(b1-4)[Fuc(a1-6)]GlcNAc
Procedure, shortened: as §1

[17] = biological target: Gal(b1-4)GlcNAc(b1-3)Gal(b1-4)GlcNAc(b1-3)Gal(b1-4)GlcNAc(b1-3)Gal(b1-4)GlcNAc(b1-2)[Gal(b1-4)GlcNAc(b1-3)Gal(b1-4)GlcNAc(b1-3)Gal(b1-4)GlcNAc(b1-3)Gal(b1-4)GlcNAc(b1-6)]Man(a1-6)[Gal(b1-4)GlcNAc(b1-3)Gal(b1-4)GlcNAc(b1-3)Gal(b1-4)GlcNAc(b1-3)Gal(b1-4)GlcNAc(b1-2)Man(a1-3)]Man(b1-4)GlcNAc(b1-4)[Fuc(a1-6)]GlcNAc
Procedure, shortened: as §1

[18] = biological target: Gal(b1-4)GlcNAc(b1-3)Gal(b1-4)GlcNAc(b1-3)Gal(b1-4)GlcNAc(b1-3)Gal(b1-4)GlcNAc(b1-3)Gal(b1-4)GlcNAc(b1-2)Man(a1-3)[Gal(b1-4)GlcNAc(b1-3)Gal(b1-4)GlcNAc(b1-3)Gal(b1-4)GlcNAc(b1-3)Gal(b1-4)GlcNAc(b1-3)Gal(b1-4)GlcNAc(b1-2)Man(a1-6)]Man(b1-4)GlcNAc(b1-4)GlcNAc
Procedure, shortened: as §1

[19] = biological target: Gal(b1-4)GlcNAc(b1-3)Gal(b1-4)GlcNAc(b1-3)Gal(b1-4)GlcNAc(b1-3)Gal(b1-4)GlcNAc(b1-3)Gal(b1-4)GlcNAc(b1-2)Man(a1-3)[Gal(b1-4)GlcNAc(b1-3)Gal(b1-4)GlcNAc(b1-3)Gal(b1-4)GlcNAc(b1-3)Gal(b1-4)GlcNAc(b1-3)Gal(b1-4)GlcNAc(b1-2)Man(a1-6)]Man(b1-4)GlcNAc(b1-4)[Fuc(a1-6)]GlcNAc
Procedure, shortened: as §1

[20] = biological target: Gal(b1-4)GlcNAc(b1-3)Gal(b1-4)GlcNAc(b1-3)Gal(b1-4)GlcNAc(b1-3)Gal(b1-4)GlcNAc(b1-3)Gal(b1-4)GlcNAc(b1-2)[Gal(b1-4)GlcNAc(b1-3)Gal(b1-4)GlcNAc(b1-3)Gal(b1-4)GlcNAc(b1-3)Gal(b1-4)GlcNAc(b1-3)Gal(b1-4)GlcNAc(b1-6)]Man(a1-6)[Gal(b1-4)GlcNAc(b1-3)Gal(b1-4)GlcNAc(b1-3)Gal(b1-4)GlcNAc(b1-3)Gal(b1-4)GlcNAc(b1-3)Gal(b1-4)GlcNAc(b1-2)Man(a1-3)]Man(b1-4)GlcNAc(b1-4)[Fuc(a1-6)]GlcNAc
Procedure, shortened: as §1

[21] = biological target: Gal(b1-4)GlcNAc(b1-3)Gal(b1-4)GlcNAc(b1-3)Gal(b1-4)GlcNAc(b1-3)Gal(b1-4)GlcNAc(b1-3)Gal(b1-4)GlcNAc(b1-3)Gal(b1-4)GlcNAc(b1-2)Man(a1-3)[Gal(b1-4)GlcNAc(b1-3)Gal(b1-4)GlcNAc(b1-3)Gal(b1-4)GlcNAc(b1-3)Gal(b1-4)GlcNAc(b1-3)Gal(b1-4)GlcNAc(b1-3)Gal(b1-4)GlcNAc(b1-2)Man(a1-6)]Man(b1-4)GlcNAc(b1-4)GlcNAc
Procedure, shortened: as §1

[22] = biological target: Gal(b1-4)GlcNAc(b1-3)Gal(b1-4)GlcNAc(b1-3)GalNAc
Procedure, shortened: as §1

[23] = biological target: Gal(b1-4)GlcNAc(b1-3)Gal(b1-4)GlcNAc(b1-3)[Gal(b1-4)GlcNAc(b1-3)Gal(b1-4)GlcNAc(b1-6)]GalNAc
Procedure, shortened: as §1

[24] = biological target: Gal(b1-4)GlcNAc(b1-3)Gal(b1-4)GlcNAc(b1-6)[Gal(b1-3)]GalNAc
Procedure, shortened: as §1

[25] = biological target: Gal(b1-4)GlcNAc(b1-3)Gal(b1-4)[Fuc(a1-3)]GlcNAc(b1-3)Gal(b1-4)[Fuc(a1-3)]GlcNAc
Procedure, shortened: as §1

[26] = biological target: Gal(b1-4)GlcNAc(b1-3)GalNAc
Procedure, shortened: as §1

[27] = biological target: Gal(b1-4)GlcNAc(b1-3)[Fuc(a1-3)GlcNAc(b1-6)]Gal(b1-4)Glc
Procedure, shortened: as §1

[28] = biological target: Gal(b1-4)GlcNAc(b1-3)[Gal(b1-4)GlcNAc(b1-6)]Gal(b1-4)GlcNAc
Procedure, shortened: as §1

[29] = biological target: Gal(b1-4)GlcNAc(b1-3)[GlcNAc(b1-6)]Gal(b1-4)GlcNAc
Procedure, shortened: as §1

[30] = biological target: Gal(b1-4)GlcNAc(b1-6)Gal(b1-4)GlcNAc
Procedure, shortened: as §1

[31] = biological target: Gal(b1-4)GlcNAc(b1-6)GalNAc
Procedure, shortened: as §1

[32] = biological target: Gal(b1-4)GlcNAc(b1-6)[Gal(b1-3)]GalNAc
Procedure, shortened: as §1

[33] = biological target: Gal(b1-4)GlcNAc(b1-6)[Gal(b1-4)GlcNAc(b1-3)]GalNAc
Procedure, shortened: as §1

[34] = biological target: Gal(b1-4)GlcNAc6P
Procedure, shortened: as §1

[35] = biological target: Gal(b1-6)Gal
Procedure, shortened: as §1

[36] = biological target: Gal3S(b1-3)GalNAc
Procedure, shortened: as §1

[37] = biological target: Gal3S(b1-3)GlcNAc
Procedure, shortened: as §1

[38] = biological target: Gal3S(b1-3)[Fuc(a1-4)]GlcNAc
Procedure, shortened: as §1

B1: PX14375F-bfa-539-21-539 (Bacteroides fragilis) (protein)
chain: EDFLQKDPPSSPSQSVFWQKKSDFESALAGTYSVMYSGVFSQIMPCLDGLTDNAIVQHSEGTYGWAKTIAQGDLTPNQGGFVTDIYGNCYKGIARVHILMEQLDQYTGSDISADEKKFMLAQCKALRGYFYSWLYQCYKEVPVVTQSLDLNTMYQPKATRAEVLNRVMTDYDEAISELPDKLYSDSQTSGRFTVSAVKALKARILLFDAYDSNGKAISSKMEEVLTLLQSIKGYSLAARVRDNFISEKQLASPEIMFSVRFLRPNLTHSMDLYYGAWAVLDPTRNMVDAFECTDGKPWGESPLTVRPDESILYGNDDALKKAERAKMFMNRDRRLYESVNHSMMANFVDDGFKDEEVQVNESNNKGPTGFSALKYVQPTDVTPGYSTVSDADIVVLRYAHVLLMIAEAENEAHGATTTALNAINEVRTRSGQPAIEAGISQDDLRERIRNEWRIETCFEGLRYFQLKRWKLMDKRVNGVEDPAYPGYIKVYKPAFEFFPIPQSEIDKAGGVLKQDPAYE
[1]
  glycan array binding signal (z-score): -0.859
[2]
  glycan array binding signal (z-score): 0.128
[3]
  glycan array binding signal (z-score): -0.78
[4]
  glycan array binding signal (z-score): -0.243
[5]
  glycan array binding signal (z-score): -0.293
[6]
  glycan array binding signal (z-score): -0.648
[7]
  glycan array binding signal (z-score): 1.54
[8]
  glycan array binding signal (z-score): -0.107
[9]
  glycan array binding signal (z-score): 1.84
[10]
  glycan array binding signal (z-score): 5.95
[11]
  glycan array binding signal (z-score): 0.625
[12]
  glycan array binding signal (z-score): 0.782
[13]
  glycan array binding signal (z-score): 1.81
[14]
  glycan array binding signal (z-score): 0.734
[15]
  glycan array binding signal (z-score): 0.871
[16]
  glycan array binding signal (z-score): 0.632
[17]
  glycan array binding signal (z-score): 0.907
[18]
  glycan array binding signal (z-score): 0.109
[19]
  glycan array binding signal (z-score): 1.5
[20]
  glycan array binding signal (z-score): 0.801
[21]
  glycan array binding signal (z-score): 4.05
[22]
  glycan array binding signal (z-score): 2.44
[23]
  glycan array binding signal (z-score): 0.456
[24]
  glycan array binding signal (z-score): -0.295
[25]
  glycan array binding signal (z-score): -0.468
[26]
  glycan array binding signal (z-score): -0.34
[27]
  glycan array binding signal (z-score): -0.049
[28]
  glycan array binding signal (z-score): 0.637
[29]
  glycan array binding signal (z-score): -0.433
[30]
  glycan array binding signal (z-score): -0.582
[31]
  glycan array binding signal (z-score): 1.01
[32]
  glycan array binding signal (z-score): -0.141
[33]
  glycan array binding signal (z-score): -0.051
[34]
  glycan array binding signal (z-score): -0.705
[35]
  glycan array binding signal (z-score): -0.171
[36]
  glycan array binding signal (z-score): -0.253
[37]
  glycan array binding signal (z-score): -0.578
[38]
  glycan array binding signal (z-score): -0.342
